# Measured values published in the supplement of paper PMC8728848.
# The list shows a part of the results.
# B1: HHA (Hippeastrum hybrid) (protein)
# chain: MQQDCNLVLYDVDKPIWASNTGGLARDCHLNMQSDGNLVVYAPRNQVIWASNTQGENGNYVCILQKDRNVVIYGTARWATGTNIHGAGIVGVPGSAPQNTTAEMIKLVRKYLITK
# How the values were obtained:
# Assay in all cases: glycan array binding signal (z-score within array); higher = stronger binding
# Details in all cases: glycan notation: IUPAC condensed, linker removed
# [1] = target: Neu5Ac(a2-6)Gal(b1-4)GlcNAc(b1-3)Gal(b1-4)[Fuc(a1-3)]GlcNAc(b1-3)Gal(b1-4)[Fuc(a1-3)]GlcNAc
# Method in brief: (§1)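 Glycan array binding is given as a within-array Z-score, which can be read as non-binding when negative. The arrays, 3228 of them, came from the Consortium for Functional Glycomics database and were retained only where the protein sequence was available. Z-scores were averaged across arrays of the same protein sequence at different concentrations or buffers and across linkers.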
# [2] = target: Neu5Ac(a2-6)Gal(b1-4)GlcNAc(b1-3)GalNAc
# Method in brief: as §1
# [3] = target: Neu5Ac(a2-6)Gal(b1-4)GlcNAc(b1-3)[Neu5Ac(a2-6)Gal(b1-4)GlcNAc(b1-6)]GalNAc
# Method in brief: as §1
# [4] = target: Neu5Ac(a2-6)Gal(b1-4)GlcNAc(b1-6)GalNAc
# Method in brief: as §1
# [5] = target: Neu5Ac(a2-6)Gal(b1-4)GlcNAc(b1-6)[Gal(b1-3)GlcNAc(b1-3)]Gal(b1-4)Glc
# Method in brief: as §1
# [6] = target: Neu5Ac(a2-6)Gal(b1-4)GlcNAc(b1-6)[Gal(b1-3)]GalNAc
# Method in brief: as §1
# [7] = target: Neu5Ac(a2-6)Gal(b1-4)GlcNAc6S
# Method in brief: as §1
# Neu5Ac(a2-6)GalNAc = target: Neu5Ac(a2-6)GalNAc
# Method in brief: as §1
# [8] = target: Neu5Ac(a2-6)GalNAc(b1-4)GlcNAc
# Method in brief: as §1
# [9] = target: Neu5Ac(a2-6)GalNAc(b1-4)GlcNAc6S
# Method in brief: as §1
# [10] = target: Neu5Ac(a2-6)GlcNAc(b1-4)GlcNAc
# Method in brief: as §1
# [11] = target: Neu5Ac(a2-6)GlcNAc(b1-4)GlcNAc(b1-4)GlcNAc
# Method in brief: as §1
# Neu5Ac(a2-8)Neu5Ac = target: Neu5Ac(a2-8)Neu5Ac
# Method in brief: as §1
# [12] = target: Neu5Ac(a2-8)Neu5Ac(a2-3)Gal(b1-3)GalNAc(b1-4)[Neu5Ac(a2-3)]Gal(b1-4)Glc
# Method in brief: as §1
# [13] = target: Neu5Ac(a2-8)Neu5Ac(a2-3)Gal(b1-3)GalNAc(b1-4)[Neu5Ac(a2-8)Neu5Ac(a2-3)]Gal(b1-4)Glc
# Method in brief: as §1
# [14] = target: Neu5Ac(a2-8)Neu5Ac(a2-3)Gal(b1-4)Glc
# Method in brief: as §1
# [15] = target: Neu5Ac(a2-8)Neu5Ac(a2-3)Gal(b1-4)GlcNAc
# Method in brief: as §1
# [16] = target: Neu5Ac(a2-8)Neu5Ac(a2-3)[Gal(b1-3)GalNAc(b1-4)]Gal(b1-4)Glc
# Method in brief: as §1
# [17] = target: Neu5Ac(a2-8)Neu5Ac(a2-3)[GalNAc(b1-4)]Gal(b1-4)Glc
# Method in brief: as §1
# [18] = target: Neu5Ac(a2-8)Neu5Ac(a2-8)Neu5Ac
# Method in brief: as §1
# [19] = target: Neu5Ac(a2-8)Neu5Ac(a2-8)Neu5Ac(a2-3)Gal(b1-4)Glc
# Method in brief: as §1
# [20] = target: Neu5Ac(a2-8)Neu5Ac(a2-8)Neu5Ac(a2-3)[Gal(b1-3)GalNAc(b1-4)]Gal(b1-4)Glc
# Method in brief: as §1
# [21] = target: Neu5Ac(a2-8)Neu5Ac(a2-8)Neu5Ac(a2-3)[GalNAc(b1-4)]Gal(b1-4)Glc
# Method in brief: as §1
# [22] = target: Neu5Ac(a2-8)Neu5Ac(a2-8)Neu5Ac(a2-8)Neu5Ac(a2-3)[GalNAc(b1-4)]Gal(b1-4)Glc
# Method in brief: as §1
# [23] = target: Neu5Ac(a2-8)Neu5Gc(a2-3)Gal(b1-4)GlcNAc
# Method in brief: as §1
# Neu5Ac(b1-6)GalNAc = target: Neu5Ac(b1-6)GalNAc
# Method in brief: as §1
# [24] = target: Neu5Ac(b2-6)Gal(b1-4)GlcNAc
# Method in brief: as §1
# Neu5Ac(b2-6)GalNAc = target: Neu5Ac(b2-6)GalNAc
# Method in brief: as §1
# [25] = target: Neu5Ac9Ac(a2-3)Gal(b1-3)GlcNAc
# Method in brief: as §1
# [26] = target: Neu5Ac9Ac(a2-3)Gal(b1-4)GlcNAc
# Method in brief: as §1
# [27] = target: Neu5Ac9Ac(a2-6)Gal(b1-4)GlcNAc
# Method in brief: as §1
# [28] = target: Neu5Gc(a2-3)Gal(b1-3)GlcNAc
# Method in brief: as §1
# [29] = target: Neu5Gc(a2-3)Gal(b1-3)[Fuc(a1-4)]GlcNAc
# Method in brief: as §1
# Neu5Gc(a2-3)Gal(b1-4)Glc = target: Neu5Gc(a2-3)Gal(b1-4)Glc
# Method in brief: as §1
# [30] = target: Neu5Gc(a2-3)Gal(b1-4)GlcNAc
# Method in brief: as §1
# [31] = target: Neu5Gc(a2-3)Gal(b1-4)GlcNAc(b1-3)Gal(b1-4)GlcNAc(b1-2)Man(a1-3)[Neu5Gc(a2-3)Gal(b1-4)GlcNAc(b1-3)Gal(b1-4)GlcNAc(b1-2)Man(a1-6)]Man(b1-4)GlcNAc(b1-4)GlcNAc
# Method in brief: as §1
# [32] = target: Neu5Gc(a2-3)Gal(b1-4)[Fuc(a1-3)]GlcNAc
# Method in brief: as §1
# [33] = target: Neu5Gc(a2-6)Gal(b1-4)GlcNAc
# Method in brief: as §1
# Neu5Gc(a2-6)GalNAc = target: Neu5Gc(a2-6)GalNAc
# Method in brief: as §1
# [34] = target: Neu5Gc(a2-8)Neu5Ac(a2-3)Gal(b1-4)GlcNAc
# Method in brief: as §1
# [35] = target: Neu5Gc(a2-8)Neu5Gc(a2-3)Gal(b1-4)GlcNAc
# Method in brief: as §1
# [36] = target: Neu5Gc(a2-8)Neu5Gc(a2-3)Gal(b1-4)GlcNAc(b1-3)Gal(b1-4)GlcNAc
# Method in brief: as §1
# [37] = target: Neu5Gc(a2-8)Neu5Gc(a2-6)Gal(b1-4)GlcNAc
# Method in brief: as §1
# [38] = target: Neu5Gc(b2-6)Gal(b1-4)GlcNAc
# Method in brief: as §1
binder,measurement,setting,value
B1,glycan array binding signal (z-score),[1],-0.137
same,glycan array binding signal (z-score),[2],-0.145
same,glycan array binding signal (z-score),[3],-0.214
same,glycan array binding signal (z-score),[4],-0.188
same,glycan array binding signal (z-score),[5],-0.21
same,glycan array binding signal (z-score),[6],-0.201
same,glycan array binding signal (z-score),[7],-0.217
same,glycan array binding signal (z-score),Neu5Ac(a2-6)GalNAc,-0.22
same,glycan array binding signal (z-score),[8],-0.222
same,glycan array binding signal (z-score),[9],-0.198
same,glycan array binding signal (z-score),[10],-0.22
same,glycan array binding signal (z-score),[11],-0.214
same,glycan array binding signal (z-score),Neu5Ac(a2-8)Neu5Ac,-0.208
same,glycan array binding signal (z-score),[12],-0.211
same,glycan array binding signal (z-score),[13],-0.199
same,glycan array binding signal (z-score),[14],-0.22
same,glycan array binding signal (z-score),[15],-0.215
same,glycan array binding signal (z-score),[16],-0.207
same,glycan array binding signal (z-score),[17],-0.212
same,glycan array binding signal (z-score),[18],-0.218
same,glycan array binding signal (z-score),[19],-0.223
same,glycan array binding signal (z-score),[20],-0.177
same,glycan array binding signal (z-score),[21],-0.198
same,glycan array binding signal (z-score),[22],-0.196
same,glycan array binding signal (z-score),[23],-0.216
same,glycan array binding signal (z-score),Neu5Ac(b1-6)GalNAc,-0.257
same,glycan array binding signal (z-score),[24],-0.217
same,glycan array binding signal (z-score),Neu5Ac(b2-6)GalNAc,-0.213
same,glycan array binding signal (z-score),[25],-0.213
same,glycan array binding signal (z-score),[26],-0.182
same,glycan array binding signal (z-score),[27],-0.225
same,glycan array binding signal (z-score),[28],-0.213
same,glycan array binding signal (z-score),[29],-0.218
same,glycan array binding signal (z-score),Neu5Gc(a2-3)Gal(b1-4)Glc,-0.212
same,glycan array binding signal (z-score),[30],-0.145
same,glycan array binding signal (z-score),[31],-0.194
same,glycan array binding signal (z-score),[32],-0.2
same,glycan array binding signal (z-score),[33],-0.211
same,glycan array binding signal (z-score),Neu5Gc(a2-6)GalNAc,-0.201
same,glycan array binding signal (z-score),[34],-0.211
same,glycan array binding signal (z-score),[35],-0.213
same,glycan array binding signal (z-score),[36],-0.218
same,glycan array binding signal (z-score),[37],-0.219
same,glycan array binding signal (z-score),[38],-0.206
